Results taken from patent publication US20220233529A1, “COMBINATION THERAPY COMPRISING A2A/A2B INHIBITORS, PD-1/PD-L1 INHIBITORS, AND ANTI-CD73 ANTIBODIES” (Incyte Corporation, priority 2020, published 2022).

How the values were obtained:
[1] = tested on: human breast adenocarcinoma tumor, MDA-MB-231; assay: Anti-tumor efficacy in humanized murine host carrying MDA-MB-231 tumor; assay type: in vivo, human CD34+ reconstituted mice; conditions: vs Vehicle + IgG isotype, ANTIBODY Y 10 mg/kg i.p. every 5 days, retifanlimab 1 mg/mL i.p. every 5 days, Compound 9 10 mg/kg p.o. b.i.d., dosing day 7-35
Experimental: On day 7, and every 3 to 4 days subsequently, tumors were measured by Vernier caliper and tumor volume was calculated by the formula, Volume=[L (long dimension)×W^2 (short dimension)]/2. Based on these measurements, mice were randomized into 8 treatment groups of 10 mice each with an average starting tumor volume of 180 mm^3. The studied agents were formulated and administered as follows: ANTIBODY Y was diluted to a final concentration of 1 mg/mL in phosphate-buffered saline and administered by intraperitoneal (i.p.) injection at 10 mL/kg to mice for a dose of 10 mg/kg, every 5 days. Retifanlimab (Macrogenics) was diluted to 1 mg/mL and dosed i.p., every 5 days. For combination treatments, the two antibodies were co-formulated to a concentration of 1 mg/mL, each. The oral vehicle was 5% N,N-dimethylacetamide in 0.5% methyl-cellulose in 50 mM citrate buffer, pH 3.0 (all reagents obtained from Sigma) and was administered by oral gavage (p.o.) twice daily (b.i.d.).
Dosing began at day 7, and ran for 28 days, through day 35. […]
Tumor Growth Inhibition (TGI), defined as (1-treatment group volume)/control group volume)×100 was analyzed for the whole study on day 47, the last day prior to some animals leaving the study at their endpoint. […]

human CD73 = target: T1, human CD73 (Homo sapiens, UniProt P21589); assay: Binding affinity of anti-CD73 antibody to human CD73
T1 sequence (P21589 27-549): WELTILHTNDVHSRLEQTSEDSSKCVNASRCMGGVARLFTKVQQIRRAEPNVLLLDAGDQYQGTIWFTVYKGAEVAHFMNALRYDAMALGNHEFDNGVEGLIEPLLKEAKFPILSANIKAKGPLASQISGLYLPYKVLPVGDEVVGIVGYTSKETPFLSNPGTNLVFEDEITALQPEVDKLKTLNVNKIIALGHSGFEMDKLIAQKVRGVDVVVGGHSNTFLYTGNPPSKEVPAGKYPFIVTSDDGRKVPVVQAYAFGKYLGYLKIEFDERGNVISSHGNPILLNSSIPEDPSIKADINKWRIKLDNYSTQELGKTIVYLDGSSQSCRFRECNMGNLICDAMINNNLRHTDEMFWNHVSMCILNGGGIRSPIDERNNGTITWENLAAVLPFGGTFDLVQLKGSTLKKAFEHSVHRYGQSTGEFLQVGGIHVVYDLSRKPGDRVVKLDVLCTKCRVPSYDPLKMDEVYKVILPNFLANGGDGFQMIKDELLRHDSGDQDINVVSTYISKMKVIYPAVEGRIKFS

murine CD73 = target: T2, murine CD73 (Mus musculus, UniProt Q61503); assay: Binding affinity of anti-CD73 antibody to murine CD73
T2 sequence (Q61503 29-551): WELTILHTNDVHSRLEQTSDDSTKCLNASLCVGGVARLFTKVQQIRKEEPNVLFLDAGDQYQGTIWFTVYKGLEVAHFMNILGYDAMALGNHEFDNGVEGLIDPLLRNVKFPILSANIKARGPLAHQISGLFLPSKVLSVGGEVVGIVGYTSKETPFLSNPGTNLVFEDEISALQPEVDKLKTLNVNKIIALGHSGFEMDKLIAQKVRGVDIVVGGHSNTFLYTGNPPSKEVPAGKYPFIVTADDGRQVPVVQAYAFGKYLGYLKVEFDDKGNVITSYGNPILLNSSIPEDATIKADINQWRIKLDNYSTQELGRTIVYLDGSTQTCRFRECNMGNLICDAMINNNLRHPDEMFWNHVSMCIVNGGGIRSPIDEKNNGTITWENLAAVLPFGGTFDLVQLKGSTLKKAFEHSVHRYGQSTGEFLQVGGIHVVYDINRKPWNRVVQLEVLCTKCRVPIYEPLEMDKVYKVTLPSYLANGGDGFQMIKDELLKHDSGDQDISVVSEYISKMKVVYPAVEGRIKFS

B1: ANTIBODY Y: humanized IgG1/kappa anti-CD73 monoclonal antibody with alanine at N297; heavy chain SEQ ID NO:24, light chain SEQ ID NO:25 (antibody)
heavy: EVQLVQSGAEVKKPGESLKISCKGSGYTFTSYGLSWVRQMPGKGLEWMGEIYPGSGNTYYNEKFKGQVTISADKSISTAYLQWSSLKASDTAMYYCARYDYLGSSYGFDYWGAGTTVTVSSASTKGPSVFPLAPSSKSTSGGTAALGCLVKDYFPEPVTVSWNSGALTSGVHTFPAVLQSSGLYSLSSVVTVPSSSLGTQTYICNVNHKPSNTKVDKRV[sequence of human IgG1 Fc with changes not given]
light: DIVMTQSPDSLAVSLGERATINCKASQDVSTAVAWYQQKPGQPPKLLIYSASYRYSGVPDRFSGSGSGTDFTLTISSLQAEDVAVYYCQQHYNTPYTFGGGTKLEIKRTVAAPSVFIFPPSDEQLKSGTASVVCLLNNFYPREAKVQWKVDNALQSGNSQESVTEQDSKDSTYSLSSTLTLSKADYEKHKVYACEVTHQGLSSPVTKSFNRGEC
Percent TGI (Day 47 Tumor Growth Inhibition) [1]: 2.20% | Kd (human CD73): 0.5 nM | binding to mouse CD73 (murine CD73): undetectable binding
